The record followed here is PMC9911399, “Two distinct binding modes provide the RNA-binding protein RbFox with extraordinary sequence specificity”.

The labels stand for the following.
B1: AGCCCGU (DNA:RNA)
RNA: GGGAGACCGGAAUUCAGAUUGUCCAGCCCGUUUAAAUCCCGUCGUAGCCACCA
DNA 1: CAATCTGAATTCCGGTCTCCC
DNA 2: TGGTGGCTACGACGGGATT
B2: CAGGUCG (DNA:RNA)
RNA: GGGAGACCGGAAUUCAGAUUGUCCCAGGUCGUUAAAUCCCGUCGUAGCCACCA
DNA 1: CAATCTGAATTCCGGTCTCCC
DNA 2: TGGTGGCTACGACGGGATT
B3: CUGGCGC (DNA:RNA)
RNA: B2 RNA with A26U, U29C, C30G, G31C
DNA 1: CAATCTGAATTCCGGTCTCCC
DNA 2: TGGTGGCTACGACGGGATT
B4: GGUGUGA (DNA:RNA)
RNA: B1 RNA with A25G, C27U, C28G, C29U, U31A
DNA 1: CAATCTGAATTCCGGTCTCCC
DNA 2: TGGTGGCTACGACGGGATT
B5: GUGCAAC (DNA:RNA)
RNA: B1 RNA with A25G, G26U, C27G, C29A, G30A, U31C
DNA 1: CAATCTGAATTCCGGTCTCCC
DNA 2: TGGTGGCTACGACGGGATT
B6: CUAUGAG (DNA:RNA)
RNA: B2 RNA with A26U, G27A, G28U, U29G, C30A
DNA 1: CAATCTGAATTCCGGTCTCCC
DNA 2: TGGTGGCTACGACGGGATT
B7: AGGAGGA (DNA:RNA)
RNA: B1 RNA with C27G, C28A, C29G, U31A
DNA 1: CAATCTGAATTCCGGTCTCCC
DNA 2: TGGTGGCTACGACGGGATT
B8: GUACGUG (DNA:RNA)
RNA: B1 RNA with A25G, G26U, C27A, C29G, G30U, U31G
DNA 1: CAATCTGAATTCCGGTCTCCC
DNA 2: TGGTGGCTACGACGGGATT
B9: GCAUUGC (DNA:RNA)
RNA: B1 RNA with A25G, G26C, C27A, C28U, C29U, U31C
DNA 1: CAATCTGAATTCCGGTCTCCC
DNA 2: TGGTGGCTACGACGGGATT
B10: GUUGCCU (DNA:RNA)
RNA: B1 RNA with A25G, G26U, C27U, C28G, G30C
DNA 1: CAATCTGAATTCCGGTCTCCC
DNA 2: TGGTGGCTACGACGGGATT
B11: UUAGAUU (DNA:RNA)
RNA: B1 RNA with A25U, G26U, C27A, C28G, C29A, G30U
DNA 1: CAATCTGAATTCCGGTCTCCC
DNA 2: TGGTGGCTACGACGGGATT
B12: ACCGAGU (DNA:RNA)
RNA: B1 RNA with G26C, C28G, C29A
DNA 1: CAATCTGAATTCCGGTCTCCC
DNA 2: TGGTGGCTACGACGGGATT
B13: CCGUAAU (DNA:RNA)
RNA: B2 RNA with A26C, G28U, U29A, C30A, G31U
DNA 1: CAATCTGAATTCCGGTCTCCC
DNA 2: TGGTGGCTACGACGGGATT
B14: UCAAUGA (DNA:RNA)
RNA: B1 RNA with A25U, G26C, C27A, C28A, C29U, U31A
DNA 1: CAATCTGAATTCCGGTCTCCC
DNA 2: TGGTGGCTACGACGGGATT
B15: CUGCGCC (DNA:RNA)
RNA: B2 RNA with A26U, G28C, U29G, G31C
DNA 1: CAATCTGAATTCCGGTCTCCC
DNA 2: TGGTGGCTACGACGGGATT
B16: GGACAUC (DNA:RNA)
RNA: B1 RNA with A25G, C27A, C29A, G30U, U31C
DNA 1: CAATCTGAATTCCGGTCTCCC
DNA 2: TGGTGGCTACGACGGGATT
B17: AGAACUU (DNA:RNA)
RNA: B1 RNA with C27A, C28A, G30U
DNA 1: CAATCTGAATTCCGGTCTCCC
DNA 2: TGGTGGCTACGACGGGATT
B18: CUAGGGA (DNA:RNA)
RNA: B2 RNA with A26U, G27A, U29G, C30G, G31A
DNA 1: CAATCTGAATTCCGGTCTCCC
DNA 2: TGGTGGCTACGACGGGATT
B19: AACUCCG (DNA:RNA)
RNA: B1 RNA with G26A, C28U, G30C, U31G
DNA 1: CAATCTGAATTCCGGTCTCCC
DNA 2: TGGTGGCTACGACGGGATT
B20: UCUAUGU (DNA:RNA)
RNA: B1 RNA with A25U, G26C, C27U, C28A, C29U
DNA 1: CAATCTGAATTCCGGTCTCCC
DNA 2: TGGTGGCTACGACGGGATT

Substitutions are numbered along the chain they refer to; changes in the protein carry UniProt numbers. The list shows a part of the results.

This assay addresses T1, RBFOX1 RRM (Homo sapiens, UniProt Q9NWB1 109-208).
T1 sequence: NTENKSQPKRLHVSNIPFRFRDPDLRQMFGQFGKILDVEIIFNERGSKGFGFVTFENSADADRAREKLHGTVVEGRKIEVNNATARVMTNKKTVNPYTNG
Kind of assay: EMSA; HiTS-Eq, 1 nM pool, 10 min; buffer printed only for the single-RNA assays: 10 mM Tris pH 7.5, 150 mM NaCl, 3.4 mM EDTA, 0.001% NP-40, 30 C. The note with it: tags: His6 N-terminal (pET28a); label: 5' 32P. In short, it runs like this: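 Relative association constants, normalised to the cognate motif, were derived by comparing read counts of each RNA species with those of the control reaction. The RNA sequenced was the free fraction, separated by 8% native PAGE after a 10 min equilibration in 50 µL of 1 nM 5′-radiolabelled RNA (7 randomized nucleotides) with increasing concentrations of purified wild-type or mutant RbFox RRM.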
A general note: In EMSA bound probe runs differently from free probe, usually more slowly.
As for B1, the binding signal is 0.00977 KA relative to UGCAUGU.

With B2, the binding signal is 0.0132 KA relative to UGCAUGU. As for B3, the binding signal is 0.02 KA relative to UGCAUGU. On to B4, for which the binding signal is 0.0133 KA relative to UGCAUGU.

On to B5, for which the binding signal was 0.0174 KA relative to UGCAUGU. As for B6, the binding signal was 0.0141 KA relative to UGCAUGU. For the molecule B7, the binding signal was 0.009 KA relative to UGCAUGU. The same measure for B8: 0.0162 KA relative to UGCAUGU. On to B9, for which the binding signal was 0.0184 KA relative to UGCAUGU.

For the molecule B10, the binding signal was 0.0199 KA relative to UGCAUGU. Turning to B11, the binding signal is 0.0079 KA relative to UGCAUGU. For B12, the binding signal was 0.00488 KA relative to UGCAUGU. As to B13, the binding signal was 0.00332 KA relative to UGCAUGU. For the molecule B14, the binding signal was 0.00743 KA relative to UGCAUGU.

As to B15, the binding signal was 0.0118 KA relative to UGCAUGU. As for B16, the binding signal was 0.0144 KA relative to UGCAUGU. The same measure for B17: 0.00341 KA relative to UGCAUGU; for B18: 0.00294 KA relative to UGCAUGU; for B19: 0.00475 KA relative to UGCAUGU. B20: the binding signal is 0.0145 KA relative to UGCAUGU.
